Experimental findings from paper PMC6919601, “Identification of Plasmodium dipeptidyl aminopeptidase allosteric inhibitors by high throughput screening” (PLoS ONE, 2019) are described below.

Values joined by “and” are separate entries in the source; they are usually repeats but may differ in a detail not shown here. Equal entries are not always repeated. Screen size: about 110,000 compounds; about 230 (0.21%) showed an effect of 50% or more. This is one part of the list.
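Also: 30 min substrate incubation versus DMSO and 10 µM JCP410 controls.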

Chain of DPAP1 (Q8IIJ9 whole entry, looked up): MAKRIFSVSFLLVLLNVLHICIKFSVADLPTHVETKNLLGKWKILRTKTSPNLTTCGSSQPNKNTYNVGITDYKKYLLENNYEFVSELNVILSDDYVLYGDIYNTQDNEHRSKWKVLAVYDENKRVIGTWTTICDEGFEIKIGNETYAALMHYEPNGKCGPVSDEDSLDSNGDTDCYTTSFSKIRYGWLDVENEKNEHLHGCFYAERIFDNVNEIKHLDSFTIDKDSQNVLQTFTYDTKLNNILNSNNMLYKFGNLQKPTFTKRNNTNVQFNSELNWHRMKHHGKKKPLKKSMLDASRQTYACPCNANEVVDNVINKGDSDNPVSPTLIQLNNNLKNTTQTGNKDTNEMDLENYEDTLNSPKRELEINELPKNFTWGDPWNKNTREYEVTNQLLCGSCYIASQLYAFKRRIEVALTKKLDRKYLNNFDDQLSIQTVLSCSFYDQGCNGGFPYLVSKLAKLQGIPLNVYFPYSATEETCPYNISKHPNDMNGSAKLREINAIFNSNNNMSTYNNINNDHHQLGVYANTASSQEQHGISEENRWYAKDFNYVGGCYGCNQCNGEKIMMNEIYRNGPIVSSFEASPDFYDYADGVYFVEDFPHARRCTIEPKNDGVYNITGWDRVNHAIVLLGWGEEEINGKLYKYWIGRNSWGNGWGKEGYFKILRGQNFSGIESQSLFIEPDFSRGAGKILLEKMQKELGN

This assay concerns the target DPAP1 (Plasmodium falciparum, UniProt Q8IIJ9). As to the kind of experiment: primary screen, percent inhibition; read by cleavage of a fluorogenic dipeptide substrate; higher = more effect of the substance. Set-up: species or system P. falciparum D10 trophozoite lysates; single well.
Turning to `Oc1ccc(Cl)cc1-c1nc(O)c2c3c(sc2n1)CCCC3`, the “% Inhibition @ 10 uM” value was 3.06%.
In the case of `CCn1cc(C2=NOC(C(=O)N3CCC(C(N)=O)CC3)C2)c(C)n1` (centres unmarked), the “% Inhibition @ 10 uM” value was -4.85%.
Consider `Cc1ccc(C2c3c(-c4cc(C)ccc4O)n[nH]c3C(=O)N2Cc2cccnc2)cc1` (centres unmarked), for which the “% Inhibition @ 10 uM” value is recorded as -2.92%.
For the compound `COC(=O)c1c(NC(=O)c2ccccc2)sc2c1CCC2`, the “% Inhibition @ 10 uM” value came to 0.997%.
Take `COCCNC(=O)CCN1N=C(c2ccccc2)CCC1=O`: the “% Inhibition @ 10 uM” value turned out to be 2.35%.
As for `CC(=O)C(=CNc1ccc2c(c1)ncn2-c1ccc(C)cc1)C(C)=O`, the “% Inhibition @ 10 uM” value is given as -3.9%.
As for `O=C(CNC(=O)c1cccs1)NCCN1CCN(Cc2ccccc2)CC1`, the “% Inhibition @ 10 uM” value was 2.05%.
Take `Cc1cc(C)c2oc(C(=O)NC3CCS(=O)(=O)C3)cc(=O)c2c1` (centres unmarked): the “% Inhibition @ 10 uM” value is 3.51%.
The result for `COc1cccc(CN2CCN(Cc3c[nH]c4ccccc34)CC2)c1OC` reads -3.49%; that for `O=C(c1nn2c(C(F)(F)F)cc(-c3cccs3)nc2c1Cl)N1CCOCC1`, -6.88%; that for `O=C(Cn1c(=O)c2ccccc2n2nncc12)NCCc1ccccc1`, -3.13%.
The result for `CCOC(=O)c1c(C)[nH]c(C)c1S(=O)(=O)NCc1ccccc1OCC` reads 4.71%; that for `OC(CN1CC=C(/C=C/c2ccc(Br)cc2)CC1)c1ccccc1` (centres unmarked), 2.6%; that for `C=Cc1ccc(Cn2c(C)c(CNCc3ccc(OC(C)C)cc3)c(C(=O)O)c2C)cc1`, -3.67%.
To `COc1ccc(C2=C/C(=C/c3cccc(Br)c3)C(=O)O2)c(OC)c1` belongs 3.16%; to `COc1ccc(OCC(=O)NCCCN2CCOCC2)cc1`, 2.1%.
As to `CC(=O)c1ccccc1OCCCN1CCCCC1`, the “% Inhibition @ 10 uM” value turned out to be 4.88%.
To `COc1ccc(C2SCCN2S(=O)(=O)c2ccc(NC(C)=O)cc2)cc1OC` (centres unmarked) belongs -2.03%; to `CN1CCN(Cc2ccc3c(c2)OCO3)CC1`, -7.49%; to `CCOC(=O)N1CCC(NC(=O)c2ccc3c(c2)sc2nc(-c4ccccc4)cn23)CC1`, 0.0882%.
On to `CS(=O)(=O)N1CCC(C(=O)N2CCc3ccccc3C2)CC1`, for which the “% Inhibition @ 10 uM” value is given as -3.92%.
On to `CCOC(=O)c1nnn(-c2nonc2N)c1COc1cc(C)c(Cl)c(C)c1`, for which the “% Inhibition @ 10 uM” value is -0.0735%.
As for `CC(=O)N1CC=C2C(C#N)=C(N)C(C#N)(C#N)C(c3ccccc3C(F)(F)F)C2C1` (centres unmarked), the “% Inhibition @ 10 uM” value is on record as -1.93%.
For `CCCCCC(=O)Nc1ncc2c(n1)CC(c1ccc(C)cc1)CC2=O` (centres unmarked), the “% Inhibition @ 10 uM” value stood at 4%.
Consider `CCC(Sc1nc2nnc(C)c-2c(N)n1-c1ccc(OC)cc1)C(=O)NC1CCCCC1` (centres unmarked), for which the “% Inhibition @ 10 uM” value is recorded as 2.9%.
Regarding `Cc1cccc(OCCCN2CCCCC2)c1`, the “% Inhibition @ 10 uM” value is 1.08%.
Turning to `CC1=C(C(=O)Nc2ccc(Br)cc2)C(c2ccccc2)NC(=O)N1C` (centres unmarked), the “% Inhibition @ 10 uM” value worked out at 3.18%.
For the compound `O=C1N2CN(Cc3ccccc3)CN3C(=O)N4CN(Cc5ccccc5)CN1C4C23` (centres unmarked), the “% Inhibition @ 10 uM” value is recorded as -0.703%.
`COc1ccc(CN2CCN(S(=O)(=O)c3ccc(-c4ccc(O)nn4)o3)CC2)c(OC)c1OC`: the “% Inhibition @ 10 uM” value is -4.99%.
For the compound `Cc1cc(C)n(C(=O)COc2ccc(C)c(C)c2)n1`, the “% Inhibition @ 10 uM” value is listed as -8.79%.
The result for `Oc1nc2ccc(C(F)(F)F)cc2n2cnnc12` reads 1.49%; that for `O=C(ONc1ncnc2nonc12)c1ccccc1`, -6.17%.
Regarding `COc1cc2c(cc1OC)C(C(=O)Nc1ccccn1)C(c1cccnc1)N(C)C2=O` (centres unmarked), the “% Inhibition @ 10 uM” value is listed as -3.79%.
To `Cc1ccccc1OCCCC(=O)Nc1ccc(N2CCOCC2)cc1` belongs 2.13%; to `CCOC(=O)c1cc(CC)sc1NC(=O)COc1ccc(Cl)cc1Cl`, -0.48%.
For `CC(=O)N(Cc1ccccc1)c1c(N)nc(N)nc1O`, the “% Inhibition @ 10 uM” value was found to be 2.06%.
Consider `CCOC(=O)N1CCN(C(=O)c2cnn(-c3ccccc3)c2-n2cccc2)CC1`, for which the “% Inhibition @ 10 uM” value is on record as 6.46%.
Regarding `CCOc1ccc2nc(NC(=O)CCNS(=O)(=O)c3cccc4nonc34)sc2c1`, the “% Inhibition @ 10 uM” value is on record as 2.84%.
In the case of `CCCNC(=O)c1cccc(COCC(F)(F)C(F)F)c1`, the “% Inhibition @ 10 uM” value was -1.02%.
For `Cc1nc2c(c(C)nn2C)c(C)c1CCC(=O)NCCc1ccc(Cl)cc1`, the “% Inhibition @ 10 uM” value was -4.24%.
For `CC(C)C[C@H](NC(=O)c1ccc(N2CCN(C)CC2)cc1)C(=O)NCCN1CCOCC1`, the “% Inhibition @ 10 uM” value is on record as 3.19%.
With `COc1ccc(NC(C)=O)c2nc(C)c(C)nc12`, the “% Inhibition @ 10 uM” value is given as 1.13%.
As for `Cc1ccccc1-c1cc(C(=O)NC(C)C)c2ccccc2n1`, the “% Inhibition @ 10 uM” value was determined as 0.408%.
For `O=S(=O)(Nc1cccc(C(F)(F)F)c1)c1cc(Cl)ccc1Cl`, the “% Inhibition @ 10 uM” value was -2.6%.
Consider `CCOC(=O)c1c(C)[nH]c(C)c1S(=O)(=O)NCC(=O)N1CCCCCC1`, for which the “% Inhibition @ 10 uM” value is on record as -7.86%.
To `CC1CCCCN1CCNC(=O)c1cc(-c2ccncc2)nc2ccccc12` (centres unmarked) belongs -4.29%.
The result for `O=C(Nc1cc([N+](=O)[O-])ccc1F)c1ccccc1` reads -1.75%; that for `CN(C)c1ccc(C(C2=C(O)N3CCSC3NC2=O)C2=C(O)N3CCSC3NC2=O)cc1` (centres unmarked), 5.04%; that for `OC1(c2ccccc2)CC2CCC(C1)N2c1ncccn1` (centres unmarked), 1.85%.
As to `O=C(O)CCC(=O)Nc1ccc(S(=O)(=O)N2CCCCC2)cc1`, the “% Inhibition @ 10 uM” value is recorded as -1.49%.
Take `Cn1c(/C=C/c2ccc(Cl)cc2)nc2ccccc21`: the “% Inhibition @ 10 uM” value is -9.13%.
With `COc1ccc(C2C(C#N)=C(N)Oc3cc(N)ccc32)cc1Br` (centres unmarked), the “% Inhibition @ 10 uM” value was found to be 4.57%.
`COc1cccc(OC)c1C(=O)Nc1ccccc1F`: the “% Inhibition @ 10 uM” value was -3.44%.
For the compound `CCN(CCN(C)C)C(C)CCc1ccccc1` (centres unmarked), the “% Inhibition @ 10 uM” value stood at 3.68%.
In the case of `COc1cc(-c2cc(=O)oc(-c3ccc(Cl)cc3Cl)n2)cc(OC)c1OC`, the “% Inhibition @ 10 uM” value came to 0.484%.
Take `N#C/C(=C\c1ccc(-c2cccc([N+](=O)[O-])c2)o1)C(=O)Nc1ccc(Cl)cc1`: the “% Inhibition @ 10 uM” value is listed as -5.11%.
With `COc1ccc(C(=O)c2cnc3ccccc3c2S(=O)(=O)c2ccccc2)cc1`, the “% Inhibition @ 10 uM” value is -1.04%.
For `Cn1c(=O)c2nc(-c3ccccn3)c(-c3ccccn3)nc2n(C)c1=O`, the “% Inhibition @ 10 uM” value was -6.83%.
To `Cc1ccc(C(=O)C2=C(O)C(=O)N(c3nc4ccccc4s3)C2c2ccc(O)cc2)cc1` (centres unmarked) belongs -6.69%; to `Cc1nnc(N2CCCC(C(=O)NCc3ccc4c(c3)OCO4)C2)c2nn(-c3ccccc3)c(C)c12` (centres unmarked), 11.4%.
`CC(O)CN1CCN(C(=O)c2ccccc2S(N)(=O)=O)CC1` (centres unmarked): the “% Inhibition @ 10 uM” value is recorded as 2.65%.
As for `CN(Cc1ccccc1)S(=O)(=O)c1nnc(NC(=O)C(C)(C)C)s1`, the “% Inhibition @ 10 uM” value is given as 3.36%.
`Cc1sc(NC(=O)COc2ccc(F)cc2F)c(C#N)c1C`: the “% Inhibition @ 10 uM” value amounted to 93.9%.
As for `CCCC(=O)N1CCN(c2ccc(C(C)=O)cc2F)CC1`, the “% Inhibition @ 10 uM” value is recorded as -0.185%.
On to `CC12CN(Cc3cccc(Br)c3)CC(C)(CN(C(=S)Nc3ccccc3)C1)C2`, for which the “% Inhibition @ 10 uM” value was 2.51%.
Turning to `N#Cc1c(N)c(C(=O)c2ccc(Br)cc2)n2ccccc12`, the “% Inhibition @ 10 uM” value was 4.54%.
In the case of `COc1ccc(/C=C2\Cc3ccccc3C2=O)c(OC)c1`, the “% Inhibition @ 10 uM” value is reported as -1.31%.
Consider `Brc1ccc(-c2nnc(SCCC3OCCCO3)o2)cc1`, for which the “% Inhibition @ 10 uM” value is on record as -0.053%.
In the case of `O=C(CN1CCCC1=O)NCCc1ccccc1`, the “% Inhibition @ 10 uM” value amounted to 4.88%.
To `C=CCN(CC=C)C(=O)c1ccc(OCC)cc1` belongs -1.04%; to `CCc1nn(CC(=O)NCc2cc(Br)ccc2OC)c(=O)c2cc3sc(C)cc3n12`, -1.7%; to `COc1ccc(NC(=O)Nc2cccc(F)c2)cc1`, 1.35%.
Turning to `COc1ccc(S(=O)(=O)N2CCC(C(=O)NCCCO)CC2)cc1OC`, the “% Inhibition @ 10 uM” value is given as -0.169%.
In the case of `Cc1cc(N2CCC(O)CC2)nc2ccccc12`, the “% Inhibition @ 10 uM” value is reported as -8.19%.
On to `CCCCC(/C=C/S(=O)(=O)c1ccccc1)NC(=O)C(Cc1ccccc1)NC(=O)N1CCC(N2CCCCC2)CC1` (centres unmarked), for which the “% Inhibition @ 10 uM” value amounted to 3.19%.
In the case of `COc1ccc(C(=O)CSc2nc3cc(OC)ccc3[nH]2)cc1`, the “% Inhibition @ 10 uM” value amounted to 4.55%.
As for `O=C(CSc1ccc(Br)cc1)N1CCCCC1`, the “% Inhibition @ 10 uM” value is reported as -2.24%.
`Cc1ccc(C(=O)N2CCN(C(=O)c3ccc(C)cc3)CC2)cc1`: the “% Inhibition @ 10 uM” value is 4.26%.
Consider `O=C1CC(c2ccccc2Cl)c2ccc3ccccc3c2N1` (centres unmarked), for which the “% Inhibition @ 10 uM” value is 4.98%.
The result for `O=S(=O)(c1ccc(Cl)c(Cl)c1)N1CCOCC1` reads -7.5%; that for `CCc1ccc(C(=O)CCN(C)C)cc1`, 2.76%.
`CC1(C)CC(O)=C/C(=N/CCCn2ccnc2)C1`: the “% Inhibition @ 10 uM” value was 4.07% and -0.687%.
As to `COc1cc2ncc(C(=O)c3ccccc3)c(S(=O)(=O)c3ccc(F)cc3)c2cc1OC`, the “% Inhibition @ 10 uM” value is -4.2%.
`C=CCn1c(=O)c2c(nc3n2CCCN3c2ccccc2)n(C)c1=O`: the “% Inhibition @ 10 uM” value was 5.92%.
For `CCNC(=S)NCCc1c(C)[nH]c2ccc(OC)cc12`, the “% Inhibition @ 10 uM” value was -3.94%.
Take `COc1cc(NC(=O)Nc2ccccc2)c(OC)cc1Cl`: the “% Inhibition @ 10 uM” value was -1.07%.
Take `COc1ccc(CN2CC3(C)CC2CC(C)(C)C3)c(OC)c1C` (centres unmarked): the “% Inhibition @ 10 uM” value is listed as -2.95%.
On to `COc1ccc(NC(=O)c2ccc(Oc3ccccc3)cc2)cc1`, for which the “% Inhibition @ 10 uM” value is on record as -0.318%.
As to `O=C(Nc1ccc(S(=O)(=O)N2CCCCC2)cc1)c1cccs1`, the “% Inhibition @ 10 uM” value is -2.56%.
Regarding `O=C(NCC12CC3CC(C1)CC(CNC(=O)c1cccs1)(C3)C2)c1cccs1`, the “% Inhibition @ 10 uM” value is on record as -0.28%.
On to `COc1ccc(N2C(=O)c3ccccc3NC2c2ccc3c(c2)OCO3)cc1` (centres unmarked), for which the “% Inhibition @ 10 uM” value was -0.173%.
For the compound `COc1cc(CNC(C)(C)CO)cc(Cl)c1OCc1ccccc1`, the “% Inhibition @ 10 uM” value was 2.76%.
The result for `COc1ccc(/C=C/C(=O)/C=C/c2ccccc2)cc1` reads 3.48%; that for `Cc1cc(C)c2ccc3c(C)c(C)[nH]c3c2n1`, -2.19%; that for `CCOC(=O)N1CCC(NC(=O)c2ccc3c(c2)nc(C)n3-c2ccc(OCC)cc2)CC1`, 11.3%.
The result for `O=C(NCc1ccccn1)Nc1ccc(Cl)cc1` reads -9.79%.
The result for `COc1cccc(-n2nnc3c(=O)n(Cc4ccc(C(F)(F)F)cc4)cnc32)c1` reads -3.94%; that for `Cc1ccc(S(=O)(=O)CCc2nc(S(=O)(=O)c3ccc(C)cc3)c(N(C)C)o2)cc1`, -1.44%.
On to `COc1cccc(CN(CC2CCCO2)S(=O)(=O)c2ccc(S(=O)(=O)N3CCCC3)cc2)c1` (centres unmarked), for which the “% Inhibition @ 10 uM” value is recorded as 3.66%.
For the compound `COC(=O)C1=CN(C)C=C(C(=O)OC)C1c1ccccc1OC`, the “% Inhibition @ 10 uM” value is -1.48%.
Consider `CC(=O)N(CCc1ccc(C)[n+]([O-])c1)c1ccccc1`, for which the “% Inhibition @ 10 uM” value is 11.4%.
